# Measured values published in the supplement of paper PMC3334620.
# The full ranking holds about 33,000 sequences; the median of “E-score (-0.5 to 0.5)” is about -0.036, and the highest 2% start at about 0.37. This is one part of the list.
# Biological target: T1, Yer064c (UniProt P40041)
# T1 sequence: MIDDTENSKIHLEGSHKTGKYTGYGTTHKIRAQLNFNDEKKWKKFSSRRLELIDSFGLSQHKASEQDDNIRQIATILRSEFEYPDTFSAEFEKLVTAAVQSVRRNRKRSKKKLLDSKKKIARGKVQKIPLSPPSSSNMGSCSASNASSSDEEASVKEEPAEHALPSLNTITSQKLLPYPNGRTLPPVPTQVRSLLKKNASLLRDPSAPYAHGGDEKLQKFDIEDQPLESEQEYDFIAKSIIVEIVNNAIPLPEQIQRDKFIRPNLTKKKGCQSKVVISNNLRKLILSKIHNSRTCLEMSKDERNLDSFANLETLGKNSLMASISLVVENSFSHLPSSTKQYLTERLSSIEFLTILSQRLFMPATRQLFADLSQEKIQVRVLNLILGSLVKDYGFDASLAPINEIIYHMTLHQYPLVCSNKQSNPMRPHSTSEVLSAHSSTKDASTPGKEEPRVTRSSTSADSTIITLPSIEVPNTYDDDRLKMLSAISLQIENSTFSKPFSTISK
# Assay: PBM E-score (8-mer binding enrichment) (E-score (-0.5 to 0.5)); higher = stronger / more preferred TF binding; most listed sequences are background and not binding sites
# Conditions: protein concentration: 200 nM; construct: GST-full length
# Outline: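 Using PURExpress in vitro transcription/translation, GST-tagged yeast transcription factors were made in full-length or DNA-binding-domain form. These were applied at about 100-200 nM to double-stranded universal all-10-mer Agilent arrays, and bound protein was detected with fluorescent anti-GST. Scans were normalised with masliner before the Universal PBM Analysis Suite assigned E-scores to ungapped eight-base words pooled with their reverse complements.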
row,Sequence,PBM E-score
1,AGCTCTCA,-0.301
2,CGAACGAA,-0.125
3,CTAAGCAA,0.109
4,AAGCTCTG,-0.165
5,GTTTAGTA,0.0856
6,ACGAATTG,-0.115
7,TAACAGCA,-0.0356
8,GCTGAGGA,-0.25
9,ACGGTTAG,-0.0193
10,AACAGCAC,-0.0633
11,AGGAATGC,-0.118
12,AATCCGAG,0.02
13,CTTTGACC,-0.0306
14,GGCCTTGA,0.103
15,TCTTTCAA,0.013
16,CGGATTCA,0.194
17,GCATCGGA,-0.142
18,AATCTCTC,-0.126
19,ACGTACCA,-0.339
20,CCCTCCTC,-0.115
21,ACCACTCG,0.0857
22,GTAGTGGA,-0.0345

row,Sequence,PBM E-score
1,AGTCTTTG,0.357
2,AAATAAGT,0.195
3,ATAGCAGC,-0.292
4,ATACATAC,-0.00217
5,ACCCTAGC,-0.144
6,ATGCACGA,-0.0234
7,CACAAACC,-0.213
8,ACTTCTAT,0.0533
9,CCTCCAGG,-0.29
10,AACTACAT,0.113
11,CTCAGGAC,0.0799
12,CATCTCTA,0.0447
13,AAGAACCG,0.0631
14,ACATTCCT,-0.0557
15,CCAGCACG,-0.31
16,CCCCCAAG,-0.0707
17,AGCCGAAC,-0.245
18,GACCGCAA,-0.257
19,GCGGTTCA,-0.0103
20,GCAACCTA,-0.00047
21,TGGGACAA,-0.137
22,CGCCGATC,-0.219

row,Sequence,PBM E-score
1,ATAAACAC,0.0336
2,GCCAAAAA,0.0564
3,ACGAACAG,-0.194
4,GCACCGCC,-0.111
5,ACGATCTG,-0.125
6,AGCAGGGC,-0.393
7,CTGGTATC,-0.192
8,CGCCCTGA,0.0302
9,GCATGAAA,-0.0118
10,GATCGGTA,0.041
11,AAGACATT,-0.0824
12,ACATGGAG,-0.0726
13,GAGCTCCA,-0.0442
14,ACAAGTGT,-0.102
15,AGCATCAC,-0.0522
16,ATAATTAA,0.213
17,GAGTGGCA,-0.129
18,AGTCTCAA,0.349
19,ACTACCTG,0.121
20,GTACACAC,0.146
21,ACAAGGCA,-0.128
22,CAGCCACG,0.138

row,Sequence,PBM E-score
1,GACAAGGA,0.0406
2,CTAGTGCC,-0.247
3,AAACTCTT,-0.0204
4,AGGATACA,-0.0458
5,GTGGCGGA,-0.0913
6,CCTTGGAA,-0.185
7,CGAAGAAG,-0.0186
8,GAACGGGA,-0.136
9,ACCCAAGC,-0.00186
10,AATCCGTC,-0.118
11,AGAAATCC,-0.262
12,AGGGATTA,0.00676
13,ACTACCAC,0.196
14,CCTGAGCA,-0.129
15,ACCGTCGA,-0.128
16,ATTGAGAA,0.178
17,GGCGTAAA,-0.13
18,ACCTGTCG,-0.106
19,CGTCGAAG,-0.0459
20,AGTGGTAA,0.0692
